Reference: the supplement of paper PMC3334620
In all, about 33,000 sequences were measured (“E-score (-0.5 to 0.5)”: median about -0.032, highest 2% from about 0.36 on). Some of the results follow.

target: T1, Sko1 (UniProt Q02100); experiment: PBM E-score (8-mer binding enrichment) (E-score (-0.5 to 0.5)); higher = stronger / more preferred TF binding; most listed sequences are background and not binding sites; settings: protein concentration: 200 nM; construct: GST-full length
T1 sequence: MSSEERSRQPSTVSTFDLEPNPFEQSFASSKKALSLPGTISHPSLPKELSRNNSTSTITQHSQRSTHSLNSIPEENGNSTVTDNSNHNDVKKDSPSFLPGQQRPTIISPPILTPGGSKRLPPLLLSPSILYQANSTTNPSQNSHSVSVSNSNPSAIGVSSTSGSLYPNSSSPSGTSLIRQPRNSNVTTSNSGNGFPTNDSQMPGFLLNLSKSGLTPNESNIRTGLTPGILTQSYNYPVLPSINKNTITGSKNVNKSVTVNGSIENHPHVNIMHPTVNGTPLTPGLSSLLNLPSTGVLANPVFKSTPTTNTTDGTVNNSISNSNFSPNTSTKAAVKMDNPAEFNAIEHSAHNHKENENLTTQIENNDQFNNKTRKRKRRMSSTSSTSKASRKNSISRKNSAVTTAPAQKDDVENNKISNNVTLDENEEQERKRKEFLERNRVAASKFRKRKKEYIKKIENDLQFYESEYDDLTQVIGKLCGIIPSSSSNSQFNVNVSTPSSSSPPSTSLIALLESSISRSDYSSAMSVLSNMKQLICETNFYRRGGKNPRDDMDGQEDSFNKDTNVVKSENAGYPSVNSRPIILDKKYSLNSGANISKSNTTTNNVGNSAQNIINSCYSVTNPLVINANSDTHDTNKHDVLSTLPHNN
Experimental: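 Universal 'all 10-mer' protein binding microarrays (Agilent AMADID 015681) probed with GST-tagged S. cerevisiae TFs (full-length or DBD) made by in vitro transcription/translation (PURExpress), about 100-200 nM. Bound TF was detected with fluorescent anti-GST. Each ungapped 8-mer (which stands for itself and its reverse complement) is scored by the PBM enrichment score (E-score), a modified Wilcoxon-Mann-Whitney statistic from -0.5 to +0.5, computed with the Universal PBM Analysis Suite. Scale: above 0.35 generally sequence-specific binding.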

| Sequence | PBM E-score |
| --- | --- |
| AGGGCACC | -0.283 |
| GTGGTGTA | 0.109 |
| AGCGACTC | -0.155 |
| GCTAGTCA | -0.0064 |
| CGCAGAGA | -0.0897 |
| GGTGAAAA | -0.0427 |
| AATAAATA | 0.344 |
| GGGCCGGA | -0.212 |
| GGTGCAAA | -0.21 |
| ACCAGACG | 0.154 |
| ATACCAGA | -0.0271 |
| AATCAGGC | 0.0204 |
| GTTAAAGA | 0.0721 |
| CAGTAGCA | -0.201 |
| ACCCTCCT | -0.203 |
| GATTGAGC | 0.0464 |
| ACGTACGA | 0.414 |
| CAGCCGTA | -0.199 |
| ATGGCGAG | -0.0155 |
| AGCCCGTG | -0.337 |
| CACGATGA | 0.166 |
| AGTATGGA | 0.0149 |

| Sequence | PBM E-score |
| --- | --- |
| ACGTGTCC | 0.318 |
| AGTTATCC | -0.051 |
| TGCGGGAA | -0.0903 |
| CTAGCTGA | -0.0288 |
| AGTAAGAA | 0.0814 |
| AAGAGAAA | -0.03 |
| GCTCAACC | -0.187 |
| GAAATTGA | 0.0914 |
| AAAGCACG | 0.196 |
| CGAAAGGA | 0.0147 |
| CACCCCCA | -0.195 |
| GCATTCTA | 0.00058 |
| AAGACCTG | -0.147 |
| AAAGCGAG | -0.0306 |
| GCGTGGGA | 0.0177 |
| CCAAACAC | 0.0445 |
| AACCGCTG | -0.182 |
| AATACCAG | -0.0482 |
| TGTCCTAA | 0.0458 |
| AAATACCA | 0.064 |
| GAAGCTAC | -0.0154 |
| AACACAAC | 0.146 |

| Sequence | PBM E-score |
| --- | --- |
| AAAGCAAT | 0.0661 |
| GGCTTACA | -0.0747 |
| AAGGGACA | -0.167 |
| TACGTATA | 0.483 |
| GGATGGCA | -0.13 |
| AGAGTATC | -0.0677 |
| GGGGCGAA | -0.085 |
| ACTGTGCG | 0.0766 |
| ATTGTGTG | 0.0446 |
| ACCTCCGA | -0.202 |
| GCCCTCCA | -0.279 |
| CCATTACG | 0.438 |
| ATCTACCC | 0.0564 |
| AGGTTTTG | -0.0965 |
| CCCACACG | 0.0941 |
| CACCCCCG | -0.0715 |
| ACCGGTGA | -0.162 |
| ACAACTCT | 0.054 |
| ACAACTGA | 0.0766 |
| AGATCAAC | 0.157 |
| AGGTACCA | -0.0384 |
| CATACTAG | 0.159 |

| Sequence | PBM E-score |
| --- | --- |
| ATGTTGCG | 0.259 |
| ATCTAAGC | -0.0874 |
| CCTGTATC | -0.11 |
| ATCCAACA | 0.0619 |
| GCCGAGTA | -0.209 |
| AAGGGAAA | -0.116 |
| CCGAAGCG | -0.231 |
| ACGAGGCC | -0.213 |
| ATGGTGTG | 0.0906 |
| ACTTCCAC | -0.0156 |
| GCTTTCAC | -0.0447 |
| AACGGGGG | -0.216 |
| ACGCGAGT | 0.14 |
| AGATATAG | 0.0612 |
| AGGTCTAG | 0.00053 |
| GGTCGACA | -0.0784 |
| CATAGCAG | -0.12 |
| ACGAGCTC | -0.0251 |
| GATACCAC | 0.0215 |
| TGTCTGAA | 0.0157 |
